Source: the supplement of paper PMC9135407
Values joined by “and” are separate entries in the source; they are usually repeats but may differ in a detail not shown here. Identical values can stand only once. Counter-ions that a name gives are not always drawn. Out of some 5,800 compounds screened, about 620 (11%) showed activity.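 The calls were made as follows: active = score above a cut-off or among the top three wells of a plate; in these data no inactive exceeds 0.85.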 Only a part is listed here, and it is no random draw.

System: primary human hepatic stellate cells (donor 1)
Experiment: scaled lipid accumulation score (0 = DMSO-like, 1 = nortriptyline-like); higher = stronger HSC inactivation (lipid re-accumulation), active = hit call of the paper
Settings: 48 h
[1] = library stock concentration: 3.33 mM
[2] = library stock concentration: 10 mM
[3] = library stock concentration: 1 mM
[4] = library stock concentration: 5.1 mM
[5] = library stock concentration: 400 uM
[6] = library stock concentration: 2 mM

## COC(=O)CCSCc1ccc(-c2onc(C)c2NC(=O)OC(C)c2ccccc2Cl)cc1 (stereo not drawn)
[1]
  scaled lipid accumulation score: inactive: 0.07
[2]
  scaled lipid accumulation score: inactive: ≤ 0

## C[C@H](N)C(=O)CCCCCC(=O)O [KAPA (hydrochloride)]
[3]
  scaled lipid accumulation score: inactive: 0.007

## NS(=O)(=O)C#Cc1ccccc1 [Pifithrin->m]
[2]
  scaled lipid accumulation score: active: 1.46

## Cc1nc(=O)c2cc(CN(C)c3ccc(C(=O)N[C@@H](CCC(=O)O)C(=O)O)s3)ccc2[nH]1 [Raltitrexed]
[1]
  scaled lipid accumulation score: inactive: ≤ 0
[2]
  scaled lipid accumulation score: inactive: ≤ 0

## Cc1nc(=O)c2cc(CN(C)c3ccc(C(=O)N[C@@H](CCC(=O)O)C(=O)O)s3)ccc2[nH]1
[2]
  scaled lipid accumulation score: inactive: ≤ 0

## CCCCC/C=C/C=C1/C=CC(=O)[C@@H]1C/C=C\CCCC(=O)O [15-deoxy-.DELTA.12,14-Prostaglandin A2]
[3]
  scaled lipid accumulation score: inactive: ≤ 0

## CCC(=O)OCN1C(=O)C=CC1=O
[2]
  scaled lipid accumulation score: inactive: ≤ -0.001

## CC(/C=C1\SC(=S)N(CC(=O)O)C1=O)=C\c1ccccc1 [Epalrestat]
[1]
  scaled lipid accumulation score: inactive: ≤ 0
[2]
  scaled lipid accumulation score: inactive: ≤ 0

## c1ccc(CNc2nc(NCc3ccccc3)c3ccccc3n2)cc1
[1]
  scaled lipid accumulation score: inactive: 0.706
[2]
  scaled lipid accumulation score: inactive: 0.074

## COc1cccc(NC(=O)/C=C/c2ccc(Cl)cc2)c1
[2]
  scaled lipid accumulation score: active: 1.2

## Cc1nc(N)sc1-c1ccnc(Nc2ccc(N3CCOCC3)cc2)n1
[2]
  scaled lipid accumulation score: active: 1.02

## CC(=O)[C@]1(O)Cc2c(O)c3c(c(O)c2[C@@H](O[C@H]2C[C@H](N)[C@H](O)[C@H](C)O2)C1)C(=O)c1ccccc1C3=O [Idarubicin HCl]
[1]
  scaled lipid accumulation score: inactive: 0.288
[2]
  scaled lipid accumulation score: inactive: 0.179

## CC(=O)[C@]1(O)Cc2c(O)c3c(c(O)c2[C@@H](O[C@H]2C[C@H](N)[C@H](O)[C@H](C)O2)C1)C(=O)c1ccccc1C3=O
[2]
  scaled lipid accumulation score: inactive: 0.372

## CC(=O)[C@]1(O)Cc2c(O)c3c(c(O)c2[C@@H](O[C@H]2C[C@H](N)[C@H](O)[C@H](C)O2)C1)C(=O)c1ccccc1C3=O [Idarubicin]
Library stock concentration: 4 mM
  scaled lipid accumulation score: inactive: 0.387
[2]
  scaled lipid accumulation score: inactive: ≤ -0.07

## O=c1oc2ccccc2c(O)c1Cc1c(O)c2ccccc2oc1=O [Dicumarol]
  scaled lipid accumulation score: inactive: ≤ 0
Library stock concentration: 5.9 mM
  scaled lipid accumulation score: inactive: 0.012
[2]
  scaled lipid accumulation score: inactive: ≤ 0

## O=c1oc2ccccc2c(O)c1Cc1c(O)c2ccccc2oc1=O [Dicoumarol]
[1]
  scaled lipid accumulation score: inactive: ≤ 0
[2]
  scaled lipid accumulation score: inactive: ≤ -0.001

## Cn1ccc2cc(NC(=O)Nc3cccnc3)ccc21
[2]
  scaled lipid accumulation score: inactive: ≤ 0 and inactive: ≤ -0.006

## CS(=O)(=O)N1CCc2c(-c3cnc(N)nc3)nc(N3CCOCC3)nc21
[1]
  scaled lipid accumulation score: inactive: ≤ 0
[2]
  scaled lipid accumulation score: inactive: ≤ 0

## COc1c2occc2c(OC)c2c(=O)cc(C)oc12 [Khellin]
  scaled lipid accumulation score: inactive: ≤ 0
[2]
  scaled lipid accumulation score: inactive: 0.326

## CCCCC[C@H](O)/C=C/[C@@H]1[C@@H](CCCCCCCO)[C@@H](O)C[C@H]1O [Prostaglandin F1.alpha. Alcohol]
[3]
  scaled lipid accumulation score: inactive: ≤ 0

## CCCCC[C@H](O)/C=C/[C@H]1CC[C@H](O)[C@@H]1CCCCCCC(=O)O [11-deoxy Prostaglandin F1.alpha.]
[3]
  scaled lipid accumulation score: inactive: ≤ 0

## C1CNCCN1 [Piperazine]
[2]
  scaled lipid accumulation score: inactive: ≤ 0
Library stock concentration: 23.2 mM
  scaled lipid accumulation score: inactive: 0.066

## Cc1ccccc1CN1C2=NCCN2C(=O)C2=C1CCN(Cc1ccccc1)C2
[1]
  scaled lipid accumulation score: inactive: ≤ -0.009
[2]
  scaled lipid accumulation score: inactive: ≤ 0

## Nc1cc(C(Cl)=C(Cl)Cl)c(S(N)(=O)=O)cc1S(N)(=O)=O [Clorsulon]
  scaled lipid accumulation score: inactive: 0.01
[1]
  scaled lipid accumulation score: inactive: ≤ 0
Library stock concentration: 5.3 mM
  scaled lipid accumulation score: inactive: ≤ 0
[2]
  scaled lipid accumulation score: inactive: ≤ 0

## COc1ccc(CCN(C)CCCC(C#N)(c2cc(OC)c(OC)c(OC)c2)C(C)C)cc1OC (stereo not drawn)
[2]
  scaled lipid accumulation score: inactive: 0.616

## CC[C@H](C)C(=O)O[C@H]1CCC=C2C=C[C@H](C)[C@H](CC[C@@H]3C[C@@H](O)CC(=O)O3)[C@H]21 [Mevastatin]
[1]
  scaled lipid accumulation score: inactive: ≤ 0
[4]
  scaled lipid accumulation score: inactive: 0.086
[2]
  scaled lipid accumulation score: inactive: 0.482 and inactive: 0.651 and inactive: 0.558

## CC[C@H](C)C(=O)O[C@H]1CCC=C2C=C[C@H](C)[C@H](CC[C@@H]3C[C@@H](O)CC(=O)O3)[C@H]21 [mevastatin]
[2]
  scaled lipid accumulation score: inactive: 0.3

## C[N+](C)(C)CC[N+]1(C)Cc2c(Cl)c(Cl)c(Cl)c(Cl)c2C1 [Chlorisondamine diiodide]
[2]
  scaled lipid accumulation score: inactive: ≤ 0

## COc1ccc2c(c1)CCC1C2CC[C@@]2(C)C1CC[C@@H]2NCCCCCCN1C(=O)CCC1=O (stereo partly drawn)
[2]
  scaled lipid accumulation score: active: 0.875

## C[C@H](CCC(=O)O)[C@H]1CC[C@H]2[C@@H]3[C@H](O)C[C@@H]4C[C@H](O)CC[C@]4(C)[C@H]3CC[C@]12C [Chenodiol]
  scaled lipid accumulation score: inactive: ≤ 0
[4]
  scaled lipid accumulation score: inactive: ≤ 0
[2]
  scaled lipid accumulation score: inactive: ≤ 0

## C[C@H](CCC(=O)O)[C@H]1CC[C@H]2[C@@H]3[C@H](O)C[C@@H]4C[C@H](O)CC[C@]4(C)[C@H]3CC[C@]12C [Chenodeoxycholic Acid]
[1]
  scaled lipid accumulation score: inactive: ≤ 0
[2]
  scaled lipid accumulation score: inactive: ≤ 0

## NNc1nncc2ccccc12 [Hydralazine hydrochloride]
  scaled lipid accumulation score: inactive: ≤ 0
[2]
  scaled lipid accumulation score: inactive: 0.079 and inactive: ≤ 0

## COc1ccc([C@@H]2CC(=O)c3c(O)cc(O[C@@H]4O[C@H](CO)[C@@H](O)[C@H](O)[C@H]4O[C@@H]4O[C@@H](C)[C@H](O)[C@@H](O)[C@H]4O)cc3O2)cc1O [Neohesperidin]
[1]
  scaled lipid accumulation score: inactive: ≤ 0
[2]
  scaled lipid accumulation score: inactive: 0.039

## CC(=O)OCC(CCn1cnc2cnc(N)nc21)COC(C)=O [Famciclovir]
[1]
  scaled lipid accumulation score: inactive: 0.06
Library stock concentration: 6.2 mM
  scaled lipid accumulation score: inactive: 0.002 and inactive: ≤ 0
[2]
  scaled lipid accumulation score: inactive: 0.008 and inactive: 0.195 and inactive: 0.085

## CC(=O)OCC(CCn1cnc2cnc(N)nc21)COC(C)=O
[2]
  scaled lipid accumulation score: inactive: 0.002

## NCC(O)CC(=O)O (stereo not drawn) [Aminohydroxybutyric acid]
[2]
  scaled lipid accumulation score: inactive: 0.017

## Oc1cccc(-c2nc(N3CCOCC3)c3oc4ncccc4c3n2)c1
[2]
  scaled lipid accumulation score: active: 0.923

## O=C1OC2(c3ccc(O)cc3Oc3cc(OS(=O)(=O)c4c(F)c(F)c(F)c(F)c4F)ccc32)c2ccccc21 (stereo not drawn) [Pentafluorobenzenesulfonyl fluorescein]
[3]
  scaled lipid accumulation score: inactive: ≤ 0

## CC(C)CC(CC(=O)NO)C(=O)N[C@@H](Cc1ccc2ccccc2c1)C(=O)N[C@@H](C)C(=O)NCCN (stereo partly drawn)
[1]
  scaled lipid accumulation score: inactive: ≤ -0.009
[2]
  scaled lipid accumulation score: inactive: 0.152

## O=C(/C=C/c1ccc(O)c(O)c1)OCCc1ccccc1 [Caffeic acid phenethyl ester]
[2]
  scaled lipid accumulation score: inactive: 0.716 and inactive: 0.118

## O=C(/C=C/c1ccc(O)c(O)c1)OCCc1ccccc1 [Caffeic Acid Phenethyl Ester]
[1]
  scaled lipid accumulation score: inactive: 0.273
[2]
  scaled lipid accumulation score: inactive: 0.498

## O=C(/C=C/c1ccc(O)c(O)c1)OCCc1ccccc1 [Caffeic Acid phenylethyl ester]
[3]
  scaled lipid accumulation score: inactive: ≤ 0

## Cc1c(N(C)CS(=O)(=O)O)c(=O)n(-c2ccccc2)n1C [Dipyrone]
  scaled lipid accumulation score: inactive: ≤ 0
Library stock concentration: 6 mM
  scaled lipid accumulation score: inactive: ≤ 0
[2]
  scaled lipid accumulation score: inactive: ≤ -0.001

## C#CC[C@H](c1nc2cc(Cl)ccc2c(=O)n1Nc1ccccc1)N(CCCN)C(=O)c1cccc(Cl)c1F
[1]
  scaled lipid accumulation score: inactive: 0.132
[2]
  scaled lipid accumulation score: inactive: ≤ 0

## C[C@@H]1CCN(C(=O)CC#N)C[C@@H]1N(C)c1ncnc2[nH]ccc12
[5]
  scaled lipid accumulation score: inactive: ≤ -0.005
[6]
  scaled lipid accumulation score: inactive: ≤ -0.005
[1]
  scaled lipid accumulation score: inactive: ≤ 0
[2]
  scaled lipid accumulation score: inactive: ≤ -0.001 and inactive: ≤ 0 and inactive: ≤ -0.005

## CN(C)[C@@H]1C(O)=C(C(=O)NCN2CCCC2)C(=O)[C@@]2(O)C(O)=C3C(=O)c4c(O)cccc4[C@@](C)(O)[C@H]3C[C@@H]12
[2]
  scaled lipid accumulation score: inactive: ≤ 0

## CN(C)[C@@H]1C(O)=C(C(=O)NCN2CCCC2)C(=O)[C@@]2(O)C(O)=C3C(=O)c4c(O)cccc4[C@@](C)(O)[C@H]3C[C@@H]12 [Rolitetracycline]
  scaled lipid accumulation score: inactive: ≤ 0

## CCCCCC/C=C\CCCCCCCC(=O)OCC [Palmitoleic Acid ethyl ester]
[3]
  scaled lipid accumulation score: inactive: ≤ 0

## CC(NCCC(c1ccccc1)c1ccccc1)c1ccccc1 (stereo not drawn) [Fendiline hydrochloride]
  scaled lipid accumulation score: inactive: 0.144
[2]
  scaled lipid accumulation score: inactive: 0.431

## C[C@@H]1COCCN1c1cc(C2(S(C)(=O)=O)CC2)nc(-c2cccc3[nH]ccc23)n1
Library stock concentration: 80 uM
  scaled lipid accumulation score: inactive: ≤ -0.016
[5]
  scaled lipid accumulation score: inactive: ≤ -0.016
[6]
  scaled lipid accumulation score: inactive: ≤ -0.016
[2]
  scaled lipid accumulation score: inactive: ≤ -0.016

## O=c1[nH]c(=O)n(C2CCCO2)cc1F (stereo not drawn)
[1]
  scaled lipid accumulation score: inactive: ≤ 0
[2]
  scaled lipid accumulation score: inactive: ≤ 0

## O=c1[nH]c(=O)n(C2CCCO2)cc1F (stereo not drawn) [Ftorafur]
[2]
  scaled lipid accumulation score: inactive: ≤ 0

## Cc1cc2c(F)c(Oc3ncnn4cc(OC[C@@H](C)OC(=O)[C@H](C)N)c(C)c34)ccc2[nH]1
[1]
  scaled lipid accumulation score: inactive: ≤ 0
[2]
  scaled lipid accumulation score: inactive: ≤ 0

## CCN(CC)CCOc1ccc(Cc2ccccc2)cc1.O=C(O)/C=C/C(=O)O [DPPE fumarate]
[2]
  scaled lipid accumulation score: active: 0.879

## COc1ccc(-c2cnc3c(-c4ccsc4)cnn3c2)cc1 [VEGF Receptor 2 Kinase Inhibitor IV]
[1]
  scaled lipid accumulation score: inactive: ≤ 0

## CCCCCCCCCCCCC(O)C(=O)O (stereo not drawn) [2-Hydroxymyristic acid]
[3]
  scaled lipid accumulation score: inactive: 0.03

## CCCCCCCCCCCCC(O)C(=O)O (stereo not drawn) [2-Hydroxymyristic Acid]
[3]
  scaled lipid accumulation score: inactive: ≤ 0

## CCC(CO)Nc1nc(NCc2ccccc2)c2ncn(C(C)C)c2n1 [Roscovitine, (S)-Isomer]
[1]
  scaled lipid accumulation score: inactive: ≤ 0

## Nc1nc2ccc(Cl)cc2c2nc(-c3ccco3)nn12
[2]
  scaled lipid accumulation score: inactive: ≤ 0 and inactive: ≤ -0.043 and inactive: ≤ -0.006
